Hit rate of the full screen: of about 420,000 compounds, about 50,000 (12%) were called active. The inconclusive results got no clear call from the source; some entries with a clear call stand among them for comparison. Calls follow the shape of the dose curve; as a rule, active = well fitted inhibition curve with a large enough effect; inconclusive = small, poorly fitted or top-dose-only effect; inactive = flat fitted curve, though single readings scatter. Potencies of inconclusive entries are left out as doubtful fits.
assay: qHTS for Inhibitors of human tyrosyl-DNA phosphodiesterase 1 (TDP1): qHTS in cells in presence of CPT; conditions: chicken DT40 Tdp1-/-;hTDP1 cells + 20 nM CPT, ATP luminescence, 48 h; activity change, negative = growth inhibition: at 46.2 µM (top of the series) unless noted; also: nearly all actives have a fitted effect of over 55% in size
Procedure, shortened: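 Cell growth measured by CellTiter-Glo luminescence after a minimum 48 h, 37 C compound exposure with 20 nM CPT in Tdp1-knockout DT40 cells stably expressing hTDP1, seeded 400/well; qHTS titration format.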
% is scaled to controls: 0 for no effect and ±100 for the full control effect; potency is read from the fitted curve at half-maximal effect; tags tell the direction and shape of the fitted curve.

| SMILES | activity change, negative = growth inhibition | Potency |
| --- | --- | --- |
| CCC(=O)Nc1cccc(-c2nnc(-c3cccc(NC(=O)CC)c3)o2)c1 | inconclusive: -32% [inhibitor] |  |
| Oc1cccc2ccc(/C=C/c3ccccc3Cl)nc12 |  | active: 9.2 µM |
| CC1CCN(Cc2c(C(=O)N3CCc4ccccc4C3)nc3ccc(Cl)cn23)CC1 |  | active: 20.6 µM |
| Cc1cccc(C(=O)N[C@H](C(=O)Nc2nnc(C3CC3)s2)C(C)C)c1 |  | inconclusive [inhibitor, single point] |
| Cc1ccc(C(=O)N2C(CC(=O)Nc3ccc(Cl)cc3)C(=O)NC3CCCCC32)cc1 (stereo not given) |  | active: 16.4 µM |
| CC1(C)Cc2c(sc(NC(=O)C(=O)N3CCCC3)c2C#N)CO1 |  | inconclusive [inhibitor, partial curve] |
| Cc1ccc(C(CC(=O)N2CCCCC2)c2ccccc2)c(O)c1C (stereo not given) |  | inconclusive [inhibitor, single point] |
| O=C(CSc1nnc(-c2cccnc2)s1)Nc1ccnc2ccccc12 |  | active: 1.16 µM |
| COc1cc(NC(=O)c2ccccc2OCc2ccccc2)cc(OC)c1OC |  | inconclusive [inhibitor, single point] |
| CCOc1ccc(N(C(=O)c2ccc(S(=O)(=O)N3CCCC3)cc2)C2C=CS(=O)(=O)C2)cc1 (stereo not given) | inactive: -1.5% |  |
| COc1cccc(/C=N/NC(=O)c2cc3c(OC)cccc3[nH]2)c1O |  | active: 5.17 µM |
| Cc1noc(/C=C/N(C)C)c1S(=O)(=O)N1CCCC(C(=O)Nc2ccc(F)cc2F)C1 (stereo not given) |  | inconclusive [inhibitor, single point] |
| O=C(O)c1cccc(N2CCCC2)c1 | inactive: -0.193% |  |
| CC(C)NC(=S)N1CCN(C/C=C/c2ccccc2)CC1 | inactive: -3.21% |  |
| COc1ccc(OC)c(-c2csc(NC(=O)C3=COCCO3)n2)c1 |  | active: 16.4 µM |
| COc1ccc(NC(=O)Nc2sc3nc4n(c(=O)c3c2C)CCC(C)CC4)cc1OC (stereo not given) |  | inconclusive [inhibitor, partial curve] |
| COc1cc(OC)cc(-c2noc(-c3csc([C@@H]4C[C@H](O)[C@@H](CO)O4)n3)n2)c1 |  | inconclusive [inhibitor, single point] |
| COC(=O)[C@]12CCCCC=C1N(CCc1ccc(OC)c(OC)c1)C(=O)[C@H](CC(=O)N1CCCC1)C2 |  | inconclusive [inhibitor, single point] |
| COc1ccc(NC(C)C(=O)N/N=C/c2ccccc2OCc2cccc(Br)c2)cc1 (stereo not given) |  | inconclusive [inhibitor, single point] |
| CN(C)CCN(Cc1ccco1)C(=O)c1oc2ccccc2c1NC(=O)COc1ccccc1 |  | inconclusive [inhibitor, single point] |
